{"source": "the RNAGym collection of RNA variant scans (doi:10.1093/nar/gkz1192)", "parents": {"B1": {"name": "CPEB3 Ribozyme (parent)", "chain": "UAACAGGGGGCCACAGCAGAAGCGUUCACGUCGCAGCCCCUGUCAGAUUCUGGUGAAUCUGCGAAUUCUGCUGUAUAUCUC"}}, "note": "The source gives no read counts; variants with many changes may rest on few reads."}
{"variants_of": "B1", "assay": "self-cleavage, relative activity (ratio to wild type); higher = more cleavage; in vitro, sequencing", "in_short": "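Barcoded CPEB3 ribozyme mutants, produced by rounds of error-prone PCR, self-cleaved while being transcribed with T7 RNA polymerase for 5 hours at 37°C and during a subsequent 15 min DNase I step before EDTA was added. Sequencing of template-switched cDNA on Illumina gave cleaved and total reads, and DNA sequencing assigned barcodes to variants. Each variant's relative activity is its cleaved/total read fraction divided by the unmutated ribozyme's fraction, averaged across three batches. A variant needed a minimum of 5 reads.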"}
{"variant": "UAACAGGGGGCCACAGCAGGAGCGUCCACGUCGCAGCCCCUGUCAGACUCUGGUGAAUCUGCGAAUUCUGCUGUAUAUCUC", "note": "[A20G U26C U48C]", "self-cleavage": 0.09}
{"variant": "UAACAGGGGGCCACAGCAGGAGCGUCCACGUCGCAGCCCCUGUCAGAUCCUGGUGAAUCUGCGAAUUCUGCUGAAUAUCUC", "note": "[A20G U26C U49C U74A]", "self-cleavage": 0.1}
{"variant": "UAACAGGGGGCCACAGCAGGAGCGUCCACGUCGCAGCCCCUGUCAGAUUCAGGUGAGUCUGCGAACUCUGCUGUAUAUCUC", "note": "[A20G U26C U51A A57G U66C]", "self-cleavage": 0.23}
{"variant": "UAACAGGGGGCCACAGCAGGAGCGUCCACGUCGCAGCCCCUGUCAGAUUCAGGUUAAUCUGCGAAUUCUGCCGUAUACCUC", "note": "[A20G U26C U51A G55U U72C U78C]", "self-cleavage": 0.47}
{"variant": "UAACAGGGGGCCACAGCAGGAGCGUCCACGUCGCAGCCCCUGUCAGAUUCCGGUGAAUCUGCGAAUUCUGCUGUAUAUCUC", "note": "[A20G U26C U51C]", "self-cleavage": 0.41}
{"variant": "UAACAGGGGGCCACAGCAGGAGCGUCCACGUCGCAGCCCCUGUCAGAUUCUGGGGAAUCUGCGAAUCCUGAUGUAUAUGUC", "note": "[A20G U26C U54G U67C C71A C79G]", "self-cleavage": 0.07}
{"variant": "UAACAGGGGGCCACAGCAGGAGCGUCCACGUCGCAGCCCCUGUCAGAUUCUGGUGAACCCGCGAAUUCUGUUGUAUAUCCC", "note": "[A20G U26C U58C U60C C71U U80C]", "self-cleavage": 0.05}
{"variant": "UAACAGGGGGCCACAGCAGGAGCGUUCACGACGCAGCCCCUGUCGGAUUCUGGUGAAUCUGCGAAUUCUGCUGUAUUUCUC", "note": "[A20G U31A A45G A77U]", "self-cleavage": 0.11}
{"variant": "UAACAGGGGGCCACAGCAGGAGCGUUCACGACGCAGCCCCCGUCAGAUUCUGGUGAGUCUGCGUAUUCUGCUGUAUAUCCC", "note": "[A20G U31A U41C A57G A64U U80C]", "self-cleavage": 0.31}
{"variant": "UAACAGGGGGCCACAGCAGGAGCGUUCACGACGCAGCCCCCGUCAGAUUCUGGUGAAUCUGCGUAUUCUGCUGUAUAUCUC", "note": "[A20G U31A U41C A64U]", "self-cleavage": 0.11}
{"variant": "UAACAGGGGGCCACAGCAGGAGCGUUCACGACGCAGCCCCUGUCAGAUUCAGGUGAAACUGCGAAUUCUGCUGUAUAUCUC", "note": "[A20G U31A U51A U58A]", "self-cleavage": 0.1}
{"variant": "UAACAGGGGGCCACAGCAGGAGCGUUCACGACGCAGCCCCUGUCAGAUUCUGGUGAAUCUGCGAAUUCUGCUGUAUAUCCC", "note": "[A20G U31A U80C]", "self-cleavage": 0.51}
{"variant": "UAACAGGGGGCCACAGCAGGAGCGUUCACGCCGCUGCCCCUGUCAGAUUCUGGUGAAACUGCGAAUUCUGCUGUAUAUCUC", "note": "[A20G U31C A35U U58A]", "self-cleavage": 0.19}
{"variant": "UAACAGGGGGCCACAGCAGGAGCGUUCACGCCGCAGCCCCUGUCAGAUUCUGGUGGAUCUGCGAAUUCUGCUGUAUAUCUC", "note": "[A20G U31C A56G]", "self-cleavage": 0.22}
{"variant": "UAACAGGGGGCCACAGCAGGAGCGUUCACGCCGCAGCCCCUGUCAGAUUCUGGUGAAUCUGCGAUUGCUGCUGUAUAUCCC", "note": "[A20G U31C A65U U67G U80C]", "self-cleavage": 0.2}
{"variant": "UAACAGGGGGCCACAGCAGGAGCGUUCACGCCGCAGCCCCUGUCAGAUUCUGGUGAAUCUGCGAAUUCUGCUGUAUAUUUC", "note": "[A20G U31C C79U]", "self-cleavage": 0.75}
{"variant": "UAACAGGGGGCCACAGCAGGAGCGUUCACGCCGCAGCCCCAGCCAGAAUCUGGAGGAUCUGCGAAUUCUGCUGUAUAUCUC", "note": "[A20G U31C U41A U43C U48A U54A A56G]", "self-cleavage": 0.12}
{"variant": "UAACAGGGGGCCACAGCAGGAGCGUUCACGCCGCAGCCCCCGUCAGAUCCUGGUGAAUCUGCGAAUUCUGCGGUAUAUCUC", "note": "[A20G U31C U41C U49C U72G]", "self-cleavage": 0.23}
{"variant": "UAACAGGGGGCCACAGCAGGAGCGUUCACGCCGCAGCCCCCGUCAGAUUCAGGUGAAUCUGCGAAUCCUGCCGUAUAUCUC", "note": "[A20G U31C U41C U51A U67C U72C]", "self-cleavage": 0.41}
{"variant": "UAACAGGGGGCCACAGCAGGAGCGUUCACGCCGCAGCCCCUGUCAGAUACUGGUGAAUCUGCGAAUUCUGCUGUAUAUCUC", "note": "[A20G U31C U49A]", "self-cleavage": 0.16}
{"variant": "UAACAGGGGGCCACAGCAGGAGCGUUCACGCCGCAGCCCCUGUCAGAUCCUGGUGAAUCUGCGAAUACGGCUGUAUAACUC", "note": "[A20G U31C U49C U67A U69G U78A]", "self-cleavage": 0.08}
{"variant": "UAACAGGGGGCCACAGCAGGAGCGUUCACGCCGCAGCCCCUGUCAGAUUCUGGAGUAUCAGCGAAUCCUGCUGUAUACCUC", "note": "[A20G U31C U54A A56U U60A U67C U78C]", "self-cleavage": 0.04}
{"variant": "UAACAGGGGGCCACAGCAGGAGCGUUCACGCCGCAGCCCCUGUCAGAUUCUGGCGAAUCUGCGAAUUCUGCUGUAUAUCUC", "note": "[A20G U31C U54C]", "self-cleavage": 0.28}
{"variant": "UAACAGGGGGCCACAGCAGGAGCGUUCACGCCGCAGCCCCUGUCAGAUUCUGGCGAACCUGCGAAUUCCGCUGUAUAUCUC", "note": "[A20G U31C U54C U58C U69C]", "self-cleavage": 0.31}
{"variant": "UAACAGGGGGCCACAGCAGGAGCGUUCACGCCGCAGCCCCUGUCAGAUUCUGGCGAAUCAGCGAAUUCUGCUGUAUAUCUC", "note": "[A20G U31C U54C U60A]", "self-cleavage": 0.15}
{"variant": "UAACAGGGGGCCACAGCAGGAGCGUUCACGCCGCAGCCCCUGUCAGAUUCUGGCGAAUCUGCGAAUCCUGCUGUAUUUCUC", "note": "[A20G U31C U54C U67C A77U]", "self-cleavage": 0.92}
{"variant": "UAACAGGGGGCCACAGCAGGAGCGUUCACGCCGCAGCCCCUGUCAGAUUCUGGUGAAUCUGCGAAUUCUGCUGUACAUCUC", "note": "[A20G U31C U76C]", "self-cleavage": 0.7}
{"variant": "UAACAGGGGGCCACAGCAGGAGCGUUCACGCCGCAGCCCCUGUCAGAUUCUGGUGAAUCUGCGAAUUCUGCUGUAUACCUC", "note": "[A20G U31C U78C]", "self-cleavage": 0.5}
{"variant": "UAACAGGGGGCCACAGCAGGAGCGUUCACGGCGCGGCCCCUGUCAGAUUCCGGUGAAUCUGCGAAUUCUGCUGUAUAUCUC", "note": "[A20G U31G A35G U51C]", "self-cleavage": 1.05}
{"variant": "UAACAGGGGGCCACAGCAGGAGCGUUCACGGCUCAGCCCCUGUCAGAUUCUGGUGUAUCUGCGAAUUCUGCUGUAUAUCUC", "note": "[A20G U31G G33U A56U]", "self-cleavage": 0.12}
{"variant": "UAACAGGGGGCCACAGCAGGAGCGUUCACGUCGCAGCCCCAGUCAGAUACUGGUGAAUCUGCGGAUUCUGCUGUAUAUCUC", "note": "[A20G U41A U49A A64G]", "self-cleavage": 0.11}
{"variant": "UAACAGGGGGCCACAGCAGGAGCGUUCACGUCGCAGCCCCAGUCAGAUCCUGGUGAAUCUGCGAAUUCCGCUGUAUACCUC", "note": "[A20G U41A U49C U69C U78C]", "self-cleavage": 0.12}
{"variant": "UAACAGGGGGCCACAGCAGGAGCGUUCACGUCGCAGCCCCAGUCAGAUUCGGGUGAAUCUGCGAACUCUGCUGUAUAUCUC", "note": "[A20G U41A U51G U66C]", "self-cleavage": 0.06}
{"variant": "UAACAGGGGGCCACAGCAGGAGCGUUCACGUCGCAGCCCCAGUCAGAUUCUGGUGAACCUGCGAGUUCUGCUGUAUACCUC", "note": "[A20G U41A U58C A65G U78C]", "self-cleavage": 0.36}
